Reference: the supplement of paper PMC4604168 (melanoma cell lines)
The other results are listed elsewhere or left out. Many values rest on one well or one pass, so single values are uncertain.

How the values were obtained:
Test in all cases: cell count relative to DMSO control; melanoma cells; higher = more viable cells
Settings in all cases: library dose: low library concentration; 72 h
WM115 = tested on: WM115
WM1716 = tested on: WM1716
WM1745 = tested on: WM1745
WM3526 = tested on: WM3526
WM3619 = tested on: WM3619
WM451Lu = tested on: WM451Lu
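Further: cell number obtained by counting DAPI-stained nuclei in high-throughput microscope images with image analysis software, screen run in 1,536-well plates.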

Row | SMILES | cell count (WM115) | cell count (WM1716) | cell count (WM1745) | cell count (WM3526) | cell count (WM3619) | cell count (WM451Lu)
1 | Cc1cc(Nc2cc(N3CCN(C)CC3)nc(/C=C/c3ccccc3)n2)n[nH]1 + O=C(CCCCCCC(=O)Nc1ccccc1)NO [vorinostat] (first compound 0.04 µM, partner dose 0.08 µM) | 95% | 99% | 102% | 83.8% | 96.8% | 97.7%
2 | CC(C)C[C@H](NC(=O)[C@H](Cc1ccccc1)NC(=O)c1cnccn1)B(O)O [Bortezomib] + CCc1ccc(CCOc2ccc(CC3SC(=O)NC3=O)cc2)nc1 [pioglitazone] (first compound 0.001 µM, partner dose 2 µM) | 92.8% | 27.4% | 60.6% | 82.3% | 12% | 106%
3 | Cc1cn(-c2cc(NC(=O)c3ccc(C)c(Nc4nccc(-c5cccnc5)n4)c3)cc(C(F)(F)F)c2)cn1 [nilotinib] + Clc1ccc(Nc2nnc(Cc3ccncc3)c3ccccc23)cc1 [vatalanib] (first compound 0.2 µM, partner dose 2 µM) | 108% | 103% | 76.8% | 105% | 90.8% | 104%
4 | CC(C)C[C@H](NC(=O)[C@H](Cc1ccccc1)NC(=O)c1cnccn1)B(O)O [Bortezomib] + COc1cc2c(Oc3ccc4[nH]c(C)cc4c3F)ncnc2cc1OCCCN1CCCC1 [cediranib] (first compound 0.001 µM, partner dose 0.4 µM) | 108% | 36.8% | 62.7% | 41.8% | 29.8% | 111%
5 | Cc1cn(-c2cc(NC(=O)c3ccc(C)c(Nc4nccc(-c5cccnc5)n4)c3)cc(C(F)(F)F)c2)cn1 [nilotinib] + O=C(Nc1ccccc1)c1cc([N+](=O)[O-])ccc1Cl [GW9662] (first compound 0.2 µM, partner dose 2 µM) | 97% | 101% | 75.8% | 101% | 99.5% | 114%
6 | Cc1cn(-c2cc(NC(=O)c3ccc(C)c(Nc4nccc(-c5cccnc5)n4)c3)cc(C(F)(F)F)c2)cn1 [nilotinib] + CCCCCCCCCCCC1=C(O)C(=O)C=C(O)C1=O [Embelin] (first compound 0.2 µM, partner dose 1.2 µM) | 101% | 110% | 94.9% | 96.8% | 107% | 93.8%
7 | Cc1cn(-c2cc(NC(=O)c3ccc(C)c(Nc4nccc(-c5cccnc5)n4)c3)cc(C(F)(F)F)c2)cn1 [nilotinib] + c1cc(-c2cnn3cc(-c4ccc(OCCN5CCCCC5)cc4)cnc23)ccn1 [Dorsomorphin] (first compound 0.2 µM, partner dose 0.4 µM) |  | 113% | 77.3% | 103% | 116% | 102%
8 | Cc1cn(-c2cc(NC(=O)c3ccc(C)c(Nc4nccc(-c5cccnc5)n4)c3)cc(C(F)(F)F)c2)cn1 [nilotinib] + O=c1cc(-c2cccc3c2Sc2ccccc2S3)oc(N2CCOCC2)c1 [KU55933] (first compound 0.2 µM, partner dose 1 µM) | 109% | 107% | 84.3% | 90.7% | 113% | 114%
9 | Cc1cn(-c2cc(NC(=O)c3ccc(C)c(Nc4nccc(-c5cccnc5)n4)c3)cc(C(F)(F)F)c2)cn1 [nilotinib] + COc1ccc(Cl)c(Nc2nc3ccccc3nc2NS(=O)(=O)c2cccc(NC(=O)C(C)(C)N)c2)c1 [XL147] (first compound 0.2 µM, partner dose 0.8 µM) | 112% |  | 85% | 117% | 99.7% | 66%
10 | COc1ccc(C2=N[C@@H](c3ccc(Cl)cc3)[C@@H](c3ccc(Cl)cc3)N2C(=O)N2CCNC(=O)C2)c(OC(C)C)c1 [Nutlin-3] + Clc1ccc(Nc2nnc(Cc3ccncc3)c3ccccc23)cc1 [vatalanib] (first compound 0.1 µM, partner dose 2 µM) | 82.7% | 87.4% | 82.7% | 82.1% | 77.9% | 104%
11 | Cc1cc(Nc2cc(N3CCN(C)CC3)nc(/C=C/c3ccccc3)n2)n[nH]1 + COc1cc2ncnc(Nc3ccc(Oc4ccccc4)cc3)c2cc1OC [SrcI1] (first compound 0.04 µM, partner dose 2 µM) | 94.2% | 119% | 85.5% | 85.8% | 98.2% | 110%
12 | CC(C)C[C@H](NC(=O)[C@H](Cc1ccccc1)NC(=O)c1cnccn1)B(O)O [Bortezomib] + C=C(c1ccc(C(=O)O)cc1)c1cc2c(cc1C)C(C)(C)CCC2(C)C [Bexarotene] (first compound 0.001 µM, partner dose 2 µM) | 94.3% | 21.3% | 55.5% | 69.1% | 11.5% | 82.9%
13 | Cn1c(=O)n(-c2ccc(C(C)(C)C#N)cc2)c2c3cc(-c4cnc5ccccc5c4)ccc3ncc21 + CC(=O)c1c(C)c2cnc(Nc3ccc(N4CCNCC4)cn3)nc2n(C2CCCC2)c1=O [palbociclib] (first compound 0.004 µM, partner dose 0.04 µM) | 81.5% | 72.4% | 77% | 64.7% | 75.2% | 90.4%
14 | Cc1cn(-c2cc(NC(=O)c3ccc(C)c(Nc4nccc(-c5cccnc5)n4)c3)cc(C(F)(F)F)c2)cn1 [nilotinib] + Cn1nnc2c(C(N)=O)ncn2c1=O [temozolomide] (first compound 0.2 µM, partner dose 2 µM) | 96.8% | 89.3% | 81.8% | 119% | 106% | 101%
15 | Cc1cc(Nc2cc(N3CCN(C)CC3)nc(/C=C/c3ccccc3)n2)n[nH]1 + CC(C)CCN1c2nc(Nc3cc(F)c(O)c(F)c3)ncc2N(C)C(=O)C1C [BID1870] (first compound 0.04 µM, partner dose 0.2 µM) | 81.4% | 91.8% | 93.5% | 106% | 104% | 97%
16 | Cn1c(=O)n(-c2ccc(C(C)(C)C#N)cc2)c2c3cc(-c4cnc5ccccc5c4)ccc3ncc21 + O=C(CCCCCCC(=O)Nc1ccccc1)NO [vorinostat] (first compound 0.004 µM, partner dose 0.08 µM) | 87.7% | 124% | 108% | 78.7% | 98.8% | 75.4%
17 | Cn1c(=O)n(-c2ccc(C(C)(C)C#N)cc2)c2c3cc(-c4cnc5ccccc5c4)ccc3ncc21 + CS(=O)(=O)CCNCc1ccc(-c2ccc3ncnc(Nc4ccc(OCc5cccc(F)c5)c(Cl)c4)c3c2)o1 [lapatinib] (first compound 0.004 µM, partner dose 0.8 µM) | 101% | 99.5% | 95.9% | 68% | 108% | 100%
18 | COc1ccc(C2=N[C@@H](c3ccc(Cl)cc3)[C@@H](c3ccc(Cl)cc3)N2C(=O)N2CCNC(=O)C2)c(OC(C)C)c1 [Nutlin-3] + CC1(C)NC(=O)N(c2ccc([N+](=O)[O-])c(C(F)(F)F)c2)C1=O [nilutamide] (first compound 0.1 µM, partner dose 1 µM) | 82.9% | 80.3% | 77% | 103% | 75.8% | 101%
19 | Cn1c(=O)n(-c2ccc(C(C)(C)C#N)cc2)c2c3cc(-c4cnc5ccccc5c4)ccc3ncc21 + COc1ccc(-c2ccc3c(N4CCOCC4)nc(N4C[C@@H](C)O[C@@H](C)C4)nc3n2)cc1CO [KU0063794] (first compound 0.004 µM, partner dose 0.02 µM) | 81.3% | 68.8% | 97.6% | 99.1% | 63% | 90.7%
20 | Cc1cc(Nc2cc(N3CCN(C)CC3)nc(/C=C/c3ccccc3)n2)n[nH]1 + O=C(O)c1ccc2c(c1)nc(Nc1cccc(Cl)c1)c1ccncc12 [CX4945] (first compound 0.04 µM, partner dose 0.4 µM) | 99.5% | 92.2% | 85.3% | 91.6% | 106% | 84.1%
21 | CC(C)C[C@H](NC(=O)[C@H](Cc1ccccc1)NC(=O)c1cnccn1)B(O)O [Bortezomib] + Oc1nc(-c2ccc(C(F)(F)F)cc2)nc2c1CSCC2 [XAV939] (first compound 0.001 µM, partner dose 2 µM) | 93.6% | 43.5% | 91.9% | 96.6% | 85.7% | 95.6%
22 | Cc1cn(-c2cc(NC(=O)c3ccc(C)c(Nc4nccc(-c5cccnc5)n4)c3)cc(C(F)(F)F)c2)cn1 [nilotinib] + CN1CCN(c2ccc3nc(-c4c(N)c5c(F)cccc5[nH]c4=O)[nH]c3c2)CC1 [Dovitinib] (first compound 0.2 µM, partner dose 0.1 µM) | 111% | 104% | 96.6% | 103% | 110% | 118%
23 | Cc1cn(-c2cc(NC(=O)c3ccc(C)c(Nc4nccc(-c5cccnc5)n4)c3)cc(C(F)(F)F)c2)cn1 [nilotinib] + OCCn1cc(-c2cnc3nnn(Cc4ccc5ncccc5c4)c3n2)cn1 [PF04217903] (first compound 0.2 µM, partner dose 1 µM) | 110% | 105% | 115% | 97.6% | 103% | 92.2%
24 | Cn1c(=O)n(-c2ccc(C(C)(C)C#N)cc2)c2c3cc(-c4cnc5ccccc5c4)ccc3ncc21 + CNC(=O)c1cc(Oc2ccc(NC(=O)Nc3ccc(Cl)c(C(F)(F)F)c3)cc2)ccn1 [sorafenib] (first compound 0.004 µM, partner dose 0.4 µM) | 96.9% | 90.2% | 96.9% | 85.5% | 96.1% | 105%
25 | Cc1cn(-c2cc(NC(=O)c3ccc(C)c(Nc4nccc(-c5cccnc5)n4)c3)cc(C(F)(F)F)c2)cn1 [nilotinib] + CO[C@@H]1[C@H](N(C)C(=O)c2ccccc2)C[C@H]2O[C@]1(C)n1c3ccccc3c3c4c(c5c6ccccc6n2c5c31)C(=O)NC4 [Midostaurin] (first compound 0.2 µM, partner dose 0.08 µM) | 94.6% | 71.9% | 68.4% | 83.9% | 89.3% | 97.9%
